This is one part of the list. At the low end of the ranking the order means little. Measured with an extract: partners may take part in the binding.
target: T1, HNF4alpha8 (COS-7 nuclear extract) (UniProt P41235-5); test: protein-binding microarray; details: COS-7 nuclear extract on double-stranded Agilent 4x180k PBM; binding buffer, salt, pH and temperature not given; high values mean tight binding; double strand, one strand shown; sequences stand for … in …GCCTAGGGAGATTAGAGTATCGGTCGA
T1 sequence: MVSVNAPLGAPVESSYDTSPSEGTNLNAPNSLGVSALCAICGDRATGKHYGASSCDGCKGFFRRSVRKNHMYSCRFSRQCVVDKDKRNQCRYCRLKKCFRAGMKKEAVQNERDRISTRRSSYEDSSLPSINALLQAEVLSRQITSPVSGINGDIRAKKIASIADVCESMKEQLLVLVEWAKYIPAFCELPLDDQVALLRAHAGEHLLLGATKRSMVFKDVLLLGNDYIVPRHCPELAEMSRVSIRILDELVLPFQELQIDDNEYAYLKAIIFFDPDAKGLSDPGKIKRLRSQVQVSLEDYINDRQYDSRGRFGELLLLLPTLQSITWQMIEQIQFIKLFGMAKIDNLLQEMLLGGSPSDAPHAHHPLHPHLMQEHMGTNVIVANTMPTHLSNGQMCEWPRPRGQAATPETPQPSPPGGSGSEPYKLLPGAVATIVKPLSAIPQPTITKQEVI

Q: How did the binding signal (log2 normalized intensity) turn out when GAAACCAGAAAAATGGAGCAGCTCTGTATT was run?
A: Its binding signal (log2 normalized intensity) is -1.22.

Q: How did the binding signal (log2 normalized intensity) turn out when AGGCGCGCCCGCGCTGCTCGCAAGCAGAAC was run?
A: The binding signal (log2 normalized intensity) was -1.23.

Q: How did the binding signal (log2 normalized intensity) turn out when TAAGGAACTGTGTAATAAGGAGTTGTGTGA was run?
A: Its binding signal (log2 normalized intensity) is 0.144.

Q: For AACCTCCTTTGAGATAGCTATGATTATCCT, which binding signal (log2 normalized intensity) is on record?
A: Its binding signal (log2 normalized intensity) is -0.867.

Q: Which binding signal (log2 normalized intensity) does the source give for GGCTACTTTCCTCCCACCTTCGAGCTTCAC here?
A: Its binding signal (log2 normalized intensity) is 0.491.

Q: TTATTATTTGTCTGGGTTATCAGTCTCTGT was tested. Which binding signal (log2 normalized intensity) did it give?
A: Its binding signal (log2 normalized intensity) is 1.4.

Q: For AGAGGGAAAGCGAGAGAGCCTGGACACACG, which binding signal (log2 normalized intensity) is on record?
A: The binding signal (log2 normalized intensity) was -1.34.

Q: CTTATCAGCAGGGTCTTTTTGACCTGTATC was tested. Which binding signal (log2 normalized intensity) did it give?
A: Its binding signal (log2 normalized intensity) is 3.86.

Q: For TAAGCCCACTAGGGAATGAAGCTAAAAGAA, which binding signal (log2 normalized intensity) is on record?
A: The binding signal (log2 normalized intensity) was -1.45.

Q: For TGGACTTTGAACCTCTCTTCTTTTTCGTCT, which binding signal (log2 normalized intensity) is on record?
A: The binding signal (log2 normalized intensity) was 7.42.

Q: GCACACATAATAGATGTGCTATATAAAAAC was tested. Which binding signal (log2 normalized intensity) did it give?
A: Its binding signal (log2 normalized intensity) is -1.22.

Q: With GATCAAGTGTCTCTACTGTCCATCTTTTGC as the sequence, how does the binding signal (log2 normalized intensity) read?
A: The binding signal (log2 normalized intensity) was 1.26.

Q: Which binding signal (log2 normalized intensity) does the source give for TTGGTTCCACATCAGAGAGTTCAAACTCTG here?
A: The binding signal (log2 normalized intensity) was 2.37.

Q: CCCCACCCGCGGTCCGTCCCTCCTGGTCGA was tested. Which binding signal (log2 normalized intensity) did it give?
A: Its binding signal (log2 normalized intensity) is 3.57.

Q: How did the binding signal (log2 normalized intensity) turn out when GCCTTTGGTACAGGGCCCAGAAAAGTAGAT was run?
A: The binding signal (log2 normalized intensity) was -1.34.

Q: How did the binding signal (log2 normalized intensity) turn out when GTCCAAATAGCGCTAACTCTATATCCAAGA was run?
A: The binding signal (log2 normalized intensity) was -1.02.

Q: How did the binding signal (log2 normalized intensity) turn out when ACATTCCAGTGGTCCCTGGAGATAATAGTG was run?
A: Its binding signal (log2 normalized intensity) is -0.113.

Q: TCTATGCCAAGCTCTGGGCTAGTCCCTGAG was tested. Which binding signal (log2 normalized intensity) did it give?
A: The binding signal (log2 normalized intensity) was -1.22.

Q: GCCAGCCAGGGCCACCCATCAGTGGACTTT was tested. Which binding signal (log2 normalized intensity) did it give?
A: The binding signal (log2 normalized intensity) was 7.34.

Q: GAACAGCAAGACTTTGGCCCTGCAGACTTT was tested. Which binding signal (log2 normalized intensity) did it give?
A: Its binding signal (log2 normalized intensity) is 3.02.

Q: With CTGGGGCCACCCTCCTCTCTGGGTCAAAGG as the sequence, how does the binding signal (log2 normalized intensity) read?
A: The binding signal (log2 normalized intensity) was 5.36.

Q: For TTTTCACATGGAATGTCGTGCCCTAATCTC, which binding signal (log2 normalized intensity) is on record?
A: Its binding signal (log2 normalized intensity) is 1.25.

Q: For AGAGATGTACACAGTTCAAAGGGCAGACAG, which binding signal (log2 normalized intensity) is on record?
A: Its binding signal (log2 normalized intensity) is 4.73.

Q: For AGGCGGAACAAGGCTGAAGGGAAGCTCTGG, which binding signal (log2 normalized intensity) is on record?
A: Its binding signal (log2 normalized intensity) is -1.32.

Q: With GAGCCAGGTGTGCTGAGGAAACTGACAGGA as the sequence, how does the binding signal (log2 normalized intensity) read?
A: The binding signal (log2 normalized intensity) was -1.23.

Q: For ACTGATAACGCCCGCCTAACCTTGAGGAGC, which binding signal (log2 normalized intensity) is on record?
A: Its binding signal (log2 normalized intensity) is -1.39.

Q: For TTATATGTCCACCTTATCTAATGCCCCAAA, which binding signal (log2 normalized intensity) is on record?
A: The binding signal (log2 normalized intensity) was 3.55.

Q: How did the binding signal (log2 normalized intensity) turn out when AGGTAGATGAATCCACAAAGATAAGAAAAA was run?
A: Its binding signal (log2 normalized intensity) is -1.45.

Q: For CAGTCCTTCAGTCCTTCCCCCGCCAGATGT, which binding signal (log2 normalized intensity) is on record?
A: The binding signal (log2 normalized intensity) was 4.99.

Q: Which binding signal (log2 normalized intensity) does the source give for TGACTGGGGTTAACGTCCAAAGGTAATGGT here?
A: The binding signal (log2 normalized intensity) was 2.93.

Q: With TATTTGATGGTACAAATTCATGGCTGGGCT as the sequence, how does the binding signal (log2 normalized intensity) read?
A: The binding signal (log2 normalized intensity) was -1.39.

Q: GCATGTGGGGGCCACGCACACCTGGATCTT was tested. Which binding signal (log2 normalized intensity) did it give?
A: Its binding signal (log2 normalized intensity) is -1.08.

Q: AGGGAAGAGATCATGGCCGATCGACTAGCG was tested. Which binding signal (log2 normalized intensity) did it give?
A: Its binding signal (log2 normalized intensity) is -1.23.

Q: CTCACAGCTCAATCCAACAAATAGACATTC was tested. Which binding signal (log2 normalized intensity) did it give?
A: The binding signal (log2 normalized intensity) was -1.24.

Q: With AAGGGCTTCAGAGTCGATAGTCCAAATTCT as the sequence, how does the binding signal (log2 normalized intensity) read?
A: The binding signal (log2 normalized intensity) was 2.4.

Q: How did the binding signal (log2 normalized intensity) turn out when GTCCACAGAAAGGCAAGAAGTATGACAACA was run?
A: The binding signal (log2 normalized intensity) was -1.28.

Q: With GGTTCTGGGGTGATTACCCTTATCTTATCT as the sequence, how does the binding signal (log2 normalized intensity) read?
A: The binding signal (log2 normalized intensity) was 1.35.

Q: GAGCCATAGCCCAAGTTCAAAGGTTATCTG was tested. Which binding signal (log2 normalized intensity) did it give?
A: Its binding signal (log2 normalized intensity) is 6.78.

Q: CACAGGTAAACATTTGCCTTTAGGGCCCCC was tested. Which binding signal (log2 normalized intensity) did it give?
A: Its binding signal (log2 normalized intensity) is 2.81.

Q: How did the binding signal (log2 normalized intensity) turn out when TACCCACGTTTAGGATTAAACACGTTTTAT was run?
A: The binding signal (log2 normalized intensity) was 0.633.

Q: TACCAACAGGCTTAACATAAAGGGTTGAAG was tested. Which binding signal (log2 normalized intensity) did it give?
A: Its binding signal (log2 normalized intensity) is -1.32.

Q: Which binding signal (log2 normalized intensity) does the source give for ACCCTTTTGCCCTTTGAGCTTCTGTCTTGG here?
A: The binding signal (log2 normalized intensity) was 4.96.

Q: For CCTCTATCCTCCACAAACAAACAGGGTGGC, which binding signal (log2 normalized intensity) is on record?
A: Its binding signal (log2 normalized intensity) is 0.0941.

Q: GGATGACCCAGATAGGCAAAGTGGCTAGGA was tested. Which binding signal (log2 normalized intensity) did it give?
A: The binding signal (log2 normalized intensity) was -1.29.

Q: With CAAGTTGGTTTACATTCTTAGAAGATAAAG as the sequence, how does the binding signal (log2 normalized intensity) read?
A: Its binding signal (log2 normalized intensity) is 0.323.

Q: For TAATTCTGTGTCATCTGAACTCTGACCAAC, which binding signal (log2 normalized intensity) is on record?
A: Its binding signal (log2 normalized intensity) is 4.62.

Q: For CCAAACAAATGGAGAAGGTCTAAGTAAACT, which binding signal (log2 normalized intensity) is on record?
A: The binding signal (log2 normalized intensity) was -1.32.

Q: With ATCACATTCTAATCCTCTGGTCTTTGCCCC as the sequence, how does the binding signal (log2 normalized intensity) read?
A: Its binding signal (log2 normalized intensity) is 5.

Q: TGACTTTAAGTTGACTCCAATGCTCGTTGA was tested. Which binding signal (log2 normalized intensity) did it give?
A: Its binding signal (log2 normalized intensity) is 0.874.

Q: For GAGTGGCCTTTAGAACCGGGGAGATACTGT, which binding signal (log2 normalized intensity) is on record?
A: The binding signal (log2 normalized intensity) was 0.192.

Q: With TGGCCACTGGCCCAGCGGATTAATATCCAG as the sequence, how does the binding signal (log2 normalized intensity) read?
A: The binding signal (log2 normalized intensity) was -1.28.

Q: For ATCAGGGGTCCTGGCAGCACCTGAAGAATT, which binding signal (log2 normalized intensity) is on record?
A: The binding signal (log2 normalized intensity) was -1.43.

Q: GACCTTTGCCCAAGCCGTTCCCTGTACCTA was tested. Which binding signal (log2 normalized intensity) did it give?
A: The binding signal (log2 normalized intensity) was 5.12.

Q: How did the binding signal (log2 normalized intensity) turn out when AAATAGGCAAGACTGCCACCTACTGACCAA was run?
A: The binding signal (log2 normalized intensity) was -1.29.

Q: With ACCTGAAAAACCTCTCTCCAGGTACAAGGA as the sequence, how does the binding signal (log2 normalized intensity) read?
A: The binding signal (log2 normalized intensity) was -1.24.

Q: With TAACCAGGGAGTGGCAGCATTGTGCTGAAA as the sequence, how does the binding signal (log2 normalized intensity) read?
A: Its binding signal (log2 normalized intensity) is -1.04.

Q: How did the binding signal (log2 normalized intensity) turn out when CATAGCAAGAGTGACCTTTGCTCCAGTTCC was run?
A: Its binding signal (log2 normalized intensity) is 8.19.

Q: For TGGGCTGTAAAAATCTATGGCAAAGGTCTC, which binding signal (log2 normalized intensity) is on record?
A: The binding signal (log2 normalized intensity) was 2.22.

Q: How did the binding signal (log2 normalized intensity) turn out when AAGTCCCAGAAGTTCTAAGGTGGGAATGCT was run?
A: Its binding signal (log2 normalized intensity) is -1.24.

Q: With AAACCAAGCTGTCCGACTGCACACCGTCCA as the sequence, how does the binding signal (log2 normalized intensity) read?
A: Its binding signal (log2 normalized intensity) is -1.13.

Q: With AAGCAGAAGCTGCACACATGTCAAAGGTCA as the sequence, how does the binding signal (log2 normalized intensity) read?
A: Its binding signal (log2 normalized intensity) is 6.91.

Q: TGCCTTGGCCTCTGCAGACATGGACTCTGG was tested. Which binding signal (log2 normalized intensity) did it give?
A: Its binding signal (log2 normalized intensity) is 4.6.

Q: For CTGTGCTTTGTTTACTTAACCTTTGATCAT, which binding signal (log2 normalized intensity) is on record?
A: Its binding signal (log2 normalized intensity) is 7.84.

Q: Which binding signal (log2 normalized intensity) does the source give for AAACCTTTGCCCAACAGGATTAGTGCTTCT here?
A: The binding signal (log2 normalized intensity) was 0.276.

Q: Which binding signal (log2 normalized intensity) does the source give for CCGGACGCGTCCTCGGCTCTGCGCAGGCGC here?
A: Its binding signal (log2 normalized intensity) is -1.23.

Q: With GACCCCTCCTCCCCCCGCCGCATCTACCAG as the sequence, how does the binding signal (log2 normalized intensity) read?
A: The binding signal (log2 normalized intensity) was 5.7.

Q: For CCAGAGAAGCTGTGTAACCCTGGAGCCATA, which binding signal (log2 normalized intensity) is on record?
A: The binding signal (log2 normalized intensity) was -1.27.

Q: Which binding signal (log2 normalized intensity) does the source give for TTGGACAAGGTAACCCCCAACATTCTTTCC here?
A: The binding signal (log2 normalized intensity) was 2.67.

Q: How did the binding signal (log2 normalized intensity) turn out when ATTGTTCCCTTGCTCCACCCTTCTATCCCC was run?
A: The binding signal (log2 normalized intensity) was 3.06.

Q: Which binding signal (log2 normalized intensity) does the source give for AGTGCTGCATGCAAAAAGGCTGACCTTTGA here?
A: The binding signal (log2 normalized intensity) was 8.62.

Q: How did the binding signal (log2 normalized intensity) turn out when TGCAGAAAAGGCCCCAGGGATTGCACAGGA was run?
A: The binding signal (log2 normalized intensity) was -1.24.

Q: Which binding signal (log2 normalized intensity) does the source give for CTGAGTGGAGGCCCAGTAAGTCCCACCCAC here?
A: Its binding signal (log2 normalized intensity) is 2.52.

Q: How did the binding signal (log2 normalized intensity) turn out when CATCAGGTGAGATAAGAAGACTCCAGGGGA was run?
A: The binding signal (log2 normalized intensity) was -1.47.

Reference: publication PMC10726135
